# Results as given in PubChem BioAssay AID624417 (National Center for Advancing Translational Sciences (NCATS), 2012).
# Screen size: about 410,000 compounds; about 6,400 (1.6%) were called active. This list was built around the results that the source calls inconclusive (neither active nor inactive); the mix of calls is not that of the screen. Calls follow the shape of the dose curve; as a rule, active = well fitted inhibition curve with a large enough effect; inconclusive = small, poorly fitted or top-dose-only effect; inactive = no such curve, though single readings can be large or run the other way. No potency is given beside an inconclusive call; the fits are too rough.
# Biological target: Glucagon-like peptide 1 receptor (Homo sapiens) (UniProt P43220)
# UniProt P43220, sequence (P43220 whole entry, looked up): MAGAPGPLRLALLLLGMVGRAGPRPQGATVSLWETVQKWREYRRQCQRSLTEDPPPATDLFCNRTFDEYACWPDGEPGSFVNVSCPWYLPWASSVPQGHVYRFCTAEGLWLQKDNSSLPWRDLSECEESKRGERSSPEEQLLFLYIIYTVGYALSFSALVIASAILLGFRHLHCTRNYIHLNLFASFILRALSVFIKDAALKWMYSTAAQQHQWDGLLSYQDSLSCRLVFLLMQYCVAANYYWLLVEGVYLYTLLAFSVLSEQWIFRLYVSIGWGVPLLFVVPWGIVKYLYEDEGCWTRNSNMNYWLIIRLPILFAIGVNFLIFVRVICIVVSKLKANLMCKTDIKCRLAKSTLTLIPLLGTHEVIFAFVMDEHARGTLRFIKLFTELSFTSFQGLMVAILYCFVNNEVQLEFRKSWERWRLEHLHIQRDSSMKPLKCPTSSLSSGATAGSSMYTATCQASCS
# Test: qHTS of GLP-1 Receptor Inverse Agonists (Inhibition Mode); also: nearly all actives have a fitted effect of over 55% in size
# Conditions: HEK293 GLP-1R CRE-luciferase, luminescence, 24 h, GLP-1R form is constitutively active; series mostly up to 38.3 µM
# How it was run: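 qHTS in 1536-well format: reporter HEK293 cells expressing constitutive GLP-1R activity in DMEM + 10% Nu serum, 24 hr with compounds at 37 deg C, luminescence read after 12 min with detection reagent.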
# Potency is read from the fitted curve at half-maximal effect; tags tell the direction and shape of the fitted curve.
row,Compound,Potency
1,O=C(Nc1ccc(F)c(Cl)c1)c1cc(S(=O)(=O)NCc2ccc3c(c2)OCO3)ccc1F,"inconclusive [inhibitor, partial curve, poor fit]"
2,COc1ccccc1NC(=O)/C(N=Nc1ccc(C)c(S(=O)(=O)Nc2ccccc2Cl)c1)=C(\C)O,"inconclusive [inhibitor, full curve, poor fit]"
3,O=C(NCC1CCCO1)c1cc(-c2ccccc2)nc2ccc(Br)cc12 (centres undefined),inactive
4,COc1ccc(C(=O)CSc2nnc(CN3CCCCC3)n2-c2ccc(Cl)cc2)cc1OC,"inconclusive [inhibitor, partial curve]"
5,CCc1ccc(NC(=O)COc2ccc(F)cc2C(=O)c2cnn(-c3ccccc3)c2)cc1,inactive
6,COc1ccc(/C(=N\O)c2ncc(C(F)(F)F)cc2Cl)cc1,"inconclusive [inhibitor, single point]"
7,CCOc1ccc2nc(N3CCCC(C(=O)NCCc4ccc(OC)cc4OC)C3)sc2c1 (centres undefined),"inconclusive [inhibitor, single point]"
8,O=C(CCNC(=O)C1CCN(S(=O)(=O)c2ccccc2)CC1)NCc1ccc(Cl)c(Cl)c1,"inconclusive [inhibitor, single point]"
9,Cc1cccc(-c2ccc3c(c2)C2CC3CCN2)c1 (centres undefined),"inconclusive [inhibitor, single point]"
10,O=C(NCCc1c[nH]c2ccccc12)C(=O)NCC1OCCCN1S(=O)(=O)c1ccccc1 (centres undefined),"inconclusive [inhibitor, full curve, poor fit]"
11,COc1ccccc1N(CC(=O)Nc1ccc2c(c1)OCCO2)S(=O)(=O)c1ccc(C)cc1,"inconclusive [inhibitor, partial curve, poor fit]"
12,CC(C)Cc1nn2cc(-c3cccc(Br)c3)nc2s1,"inconclusive [inhibitor, partial curve, poor fit]"
13,CCN(c1ccc(OC)cc1)S(=O)(=O)c1ccc2c(c1)NC(=O)CS2,"inconclusive [inhibitor, full curve, poor fit]"
14,O=C(O)CCc1ccc(-c2ccc(Br)cc2)n1-c1ccccc1O,"inconclusive [inhibitor, single point]"
15,CC(C)n1c(Nc2ccccc2)nc2ccccc21,active: 11.2 µM
16,CCN(CC)CCCNC1=C(Cl)C(=O)c2ccccc2C1=O,"inconclusive [inhibitor, partial curve, poor fit]"
17,COC(=O)c1c(C)n(-c2ccc(OC)cc2)c2ccc(O)cc12,"inconclusive [inhibitor, partial curve, poor fit]"
18,COC(=O)c1ccc2[nH]c(C)cc(=O)c2c1,inactive
19,CN1CCN(CCCC(=O)c2ccc(C3CCCC3)cc2)CC1,"inconclusive [inhibitor, full curve, poor fit]"
20,COc1ccc(-c2nc3sc(CCNC(=O)C(C)(C)C)c(C)n3n2)cc1,"inconclusive [inhibitor, single point]"
21,O=C(NCC1CCCO1)c1csc2c1CCCCC2 (centres undefined),inactive
22,CCOC(=O)c1cnc(NCc2ccc(OC)cc2OC)c2ccccc12,"inconclusive [inhibitor, single point]"

row,Compound,Potency
1,CCOc1ccccc1NC(=O)N1CC(C)Oc2ccc(Cl)cc21 (centres undefined),"inconclusive [inhibitor, single point]"
2,CC(C)c1ccc(NNC(=O)C2CCC2)cc1,"inconclusive [inhibitor, partial curve, poor fit]"
3,CC1CCN(C(=O)CCC(=O)N2CC(C)Oc3ccccc32)CC1 (centres undefined),inactive
4,Cc1ccc(S(=O)(=O)NCc2ccccc2)cc1,inactive
5,CCn1c(C(=O)N2CCC(C(=O)NCc3ccc4c(c3)OCO4)CC2)cc2sccc21,"inconclusive [inhibitor, partial curve, poor fit]"
6,COc1ccc(S(=O)(=O)Nc2ccccc2C(=O)NCc2ccco2)cc1,"inconclusive [inhibitor, full curve, poor fit]"
7,O=C(Nc1csc(Cl)c1)c1ccccc1,"inconclusive [inhibitor, single point]"
8,O=C(c1cc(-c2cccs2)nc2ccccc12)N1CCN(c2ccccc2O)CC1,"inconclusive [inhibitor, single point]"
9,CCOc1ccc(C(=O)Nc2cc(-c3nc4ccccc4[nH]3)ccc2C)cc1[N+](=O)[O-],"inconclusive [inhibitor, partial curve, poor fit]"
10,O=C(CCSc1ccccc1)Nc1ccc(OCc2ccccc2)cc1,inactive
11,Cc1sc2ncnc(N/N=C/c3ccc(O)cc3)c2c1C,"inconclusive [inhibitor, single point]"
12,O=C(Nc1cccc(-c2ccc(N3CCCCC3)nn2)c1)c1ccc(Br)o1,"inconclusive [inhibitor, single point]"
13,COc1cccc(C(=O)/C=C/Nc2cccc(O)c2)c1,"inconclusive [inhibitor, partial curve, poor fit]"
14,O=C(C[N+]1(CC#Cc2ccccc2)CCOCC1)c1ccccc1,"inconclusive [inhibitor, single point]"
15,O=C(CCNC(=O)c1ccc(Br)cc1)NNC(=O)c1ccccc1,"inconclusive [inhibitor, partial curve, poor fit]"
16,CC(=C/c1ccccc1)/C=N/NC(=O)c1ccccn1,"inconclusive [inhibitor, partial curve]"
17,CCn1c(NCc2ccccc2NS(=O)(=O)c2ccc(C)cc2)nc2ccccc21,"inconclusive [inhibitor, full curve]"
18,Cc1ccc(NC(=O)C2CCCN(C(=O)NCc3ccccc3)C2)c(C)c1 (centres undefined),"inconclusive [inhibitor, single point]"
19,CCOc1ccc(OCCCC(=O)Nc2cc(Cl)ccc2-n2cncn2)cc1,"inconclusive [inhibitor, partial curve, poor fit]"
20,Cn1cc(S(=O)(=O)N2CCCC2)cc1C(=O)O,inactive
21,O=c1[nH]ncc2c3ccccc3n(Cc3ccc(F)cc3)c12,"inconclusive [inhibitor, single point]"
22,COc1cccc(C(=O)Nc2nc(-c3nnn(-c4cc(C)ccc4C)c3C)ns2)c1,inactive

row,Compound,Potency
1,O=C1CN(C(=O)c2cccc(Br)c2)C(c2ccccc2)c2cc(Cl)ccc2N1 (centres undefined),"inconclusive [inhibitor, partial curve, poor fit]"
2,CC1(C(=O)NCCc2ccccc2)Cc2c(-c3ccc4c(c3)OCO4)ccnc2O1 (centres undefined),"inconclusive [inhibitor, full curve]"
3,O=C(NCCS(=O)(=O)N1CCN(c2cccc(Cl)c2)CC1)c1ccc2c(c1)OCO2,"inconclusive [inhibitor, partial curve]"
4,CCOC(=S)SCC(=O)Nc1nc(C)c(C)s1,"inconclusive [inhibitor, single point]"
5,O=C(C[C@H]1C(=O)N(Cc2cccnc2)C[C@@H]1Cc1ccccc1)Nc1ccc(Br)cc1,"inconclusive [inhibitor, single point]"
6,CC(=O)c1sc(N/N=C2\CC3CCC2(C)C3(C)C)nc1C (centres undefined),"inconclusive [inhibitor, partial curve, poor fit]"
7,O=C(CSc1ccc(Cl)cc1)NC(=O)NC1CCCC1,"inconclusive [inhibitor, partial curve, poor fit]"
8,COc1ccccc1NC(=O)C(=O)c1cc(C)n(-c2cc(C)cc(C)c2)c1C,"inconclusive [inhibitor, single point]"
9,Cn1c(NCCN2CCCC2)nc2cc(-c3ccccc3)sc2c1=O,"inconclusive [inhibitor, single point]"
10,CC(C)C(NS(=O)(=O)c1cccs1)C(=O)Nc1nc(C(C)(C)C)cs1 (centres undefined),"inconclusive [inhibitor, single point]"
11,COc1ccc2c(c1)C(NS(=O)(=O)OCC(Cl)(Cl)Cl)CCC2 (centres undefined),"inconclusive [inhibitor, single point]"
12,CS(=O)(=O)N1CCN(c2ccc([N+](=O)[O-])cc2C(F)(F)F)CC1,inactive
13,COc1ccccc1NC(=O)C(C)N1CCN(C/C=C/c2ccccc2)CC1 (centres undefined),"inconclusive [inhibitor, partial curve, poor fit]"
14,CCS(=O)(=O)c1ccc2oc(Nc3cc(C)cc(C)c3)nc2c1,"inconclusive [inhibitor, single point]"
15,CN(c1ccc(C(=O)NCc2ccc3c(c2)OCO3)cc1)S(=O)(=O)c1ccccc1,"inconclusive [inhibitor, partial curve, poor fit]"
16,Brc1ccc(-c2csc(N/N=C/c3cccnc3)n2)cc1,"inconclusive [inhibitor, partial curve, poor fit]"
17,CCOC(=O)C1=C(CN(CC)Cc2ccccc2)NC(=O)NC1c1ccc(OC)cc1 (centres undefined),"inconclusive [inhibitor, single point]"
18,COc1nc(NCCC2=CCCCC2)nc(OC)n1,"inconclusive [inhibitor, single point]"
19,O=C(c1ccc(Br)o1)N1CCC(c2nc3ccccc3[nH]2)CC1,inactive
20,O=C(c1ccc2c(c1)N(Cc1cccc(Cl)c1)C(=O)c1ccccc1S2(=O)=O)N1CCc2ccccc21,inactive
